# Results as given in PubChem BioAssay AID1868 (National Center for Advancing Translational Sciences (NCATS), 2009).
# About 20 (0.007%) of roughly 270,000 compounds were called active. Calls come from the whole dose curve; as a rule, active = well fitted inhibition curve with a large enough effect; inconclusive = small, poorly fitted or top-dose-only effect, or effect the other way; inactive = flat fitted curve, though single readings scatter. Inconclusive results, whose numbers are uncertain, are shown. Where the call is inconclusive, the potency comes from a doubtful curve fit.
# Target: Galactokinase (Homo sapiens) (UniProt P51570)
# Assay: qHTS Assay for Inhibitors of Human Galactokinase (GALK)
# Conditions: Purified GALK, Kinase-Glo residual ATP luminescence; series mostly up to 57.5 µM
# Text: NIH Molecular Libraries Probe Production Centers Network [MLPCN] NIH Chemical Genomics Center [NCGC] MLPCN Grant: R03 MH085689-01 Assay Submitter (PI): Kent Lai (University of Utah School of Medicine, 50 N Mario Capecchi Drive, Salt Lake City, UT 84132) NCGC Assay Overview: Inherited deficiency of galactose-1-phosphate uridyltransferase (GALT) can result in a potentially lethal disorder called Classic Galactosemia (OMIM 230400). Several lines of evidence indicate that an elevated level of galactose-1-phosphate (gal-1-p), the product of galactokinase (GALK), is a major, if not sole, pathogenic mechanism in patients with classic galactosemia. Therefore, finding inhibitors of GALK is a potential novel therapy for this inherent metabolic disease and is the long term goal of this project. GALK (provided by the assay submitter) was assayed using ATP and D-(+)-Galactose (Sigma-Aldrich cat# G0750) as substrates. Promega Kinase-Glo Plus (cat# V3774) technology was used to detect the residual ATP following kinetic reaction. Briefly, the Kinase-Glo Plus contains Ultra-Glo [2] luciferase and D-luciferin which generates a bioluminescence signal from the remaining ATP.
# NCGC Assay Protocol Summary: Three uL/well of ATP-buffer solution (35 uM ATP, 20mM HEPES pH8.0, 5 mM MgCl2, 60 mM NaCl, 1 mM DTT, 0.01% BSA final concentration) was dispensed into 1536-well, assay plates (Greiner, solid white medium-binding plates) with Aurora Discovery BioRAPTR Flying Reagent Dispenser (FRD; Beckton-Dickenson). Compound solution (23 nL) was transferred to the assay plate using the Kalypsys 1536-pin tool. One uL/well GALK-galactose solution (5 nM GALK, 100 uM galactose, 20 mM HEPES pH8.0, 5 mM MgCl2, 60 mM NaCl, 1 mM DTT, 0.01% BSA final concentration) was then added using the FRD yielding a total kinase reaction volume of 4 uL/ well. After 1 hour of room temperature incubation, 4 uL Kinase-Glo Plus reagent was added for a final assay volume of 8 uL/ well. Luminescence was detected with the ViewLux plate reader (Perkin Elmer, Waltham, MA) after 10 min incubation using a 1 sec exposure time and 2x binning.
# Potency is the fitted concentration of half-maximal effect; tags give direction and shape of the fitted curve.
# Sequence of UniProt P51570 (P51570 whole entry, looked up): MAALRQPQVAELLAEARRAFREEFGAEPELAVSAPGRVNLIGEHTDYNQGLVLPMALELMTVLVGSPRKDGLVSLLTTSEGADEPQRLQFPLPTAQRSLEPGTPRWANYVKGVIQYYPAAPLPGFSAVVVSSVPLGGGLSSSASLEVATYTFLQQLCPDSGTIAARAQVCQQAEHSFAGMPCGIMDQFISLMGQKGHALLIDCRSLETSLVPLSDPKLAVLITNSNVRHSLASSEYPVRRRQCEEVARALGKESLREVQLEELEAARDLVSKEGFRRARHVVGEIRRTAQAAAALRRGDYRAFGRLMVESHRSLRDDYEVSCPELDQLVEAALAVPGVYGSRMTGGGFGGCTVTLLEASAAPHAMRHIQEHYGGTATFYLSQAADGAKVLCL
row,Compound,Potency
1,CCOc1cc(/C=C2/C(=N)N3C(=NC2=O)SN=C3S(C)(=O)=O)ccc1OS(=O)(=O)c1ccccc1,"inconclusive: 39.8 µM [falling, single point]"
2,COc1cc(/C=C2\C(=N)N3N=C(S(C)(=O)=O)SC3=NC2=O)ccc1OS(=O)(=O)c1ccccc1,"inconclusive: 22.4 µM [falling, single point]"
3,Cc1ccc(S(=O)(=O)Oc2ccc(/C=C3/C(=N)N4C(=NC3=O)SN=C4S(C)(=O)=O)cc2)cc1,"inconclusive: 22.4 µM [falling, single point]"
